Results are given in words; binding and its absence hold for the method and conditions named. In cells and extracts the contact can be indirect. Some entries that bind do so weakly or less than the wild type. For some of these results: Tags and fused reporters may be left off the sequences shown.
Key:
[1] = target: endogenous PPARγ of differentiated 3T3-L1 cells (mouse (endogenous in 3T3-L1)) (UniProt P37238); test: co-IP; endogenous proteins of 3T3-L1 cells treated with DMI cocktail during 6 days and with MG132 for 6 h before harvest; immunoprecipitated with polyclonal PPARγ antibody
[2] = target: HA-CHIP K30A, from pcDNA3-HA-CHIP K30A (UniProt Q9UNE7); test: co-IP; lysates of HEK 293T cells transfected with HA-CHIP variants and FLAG-PPARγ, immunoprecipitated with α-HA antibodies
[3] = target: HA-CHIP H260Q, from pcDNA3-HA-CHIP H260Q (UniProt Q9UNE7); test: as above
[4] = target: T1, PPARγ2 from pcDNA3.1-PPARγ2, expressed in HEK 293T cells, P37231; test: co-IP; HEK 293T cells transfected with pcDNA3-FLAG-CHIP, pcDNA3.1-PPARγ2 and pcDNA3-HA-HSP70, MG132 for 6 hour; lysates immunoprecipitated with α-PPARγ antibodies; details: remark: other sources report otherwise
T1 chain: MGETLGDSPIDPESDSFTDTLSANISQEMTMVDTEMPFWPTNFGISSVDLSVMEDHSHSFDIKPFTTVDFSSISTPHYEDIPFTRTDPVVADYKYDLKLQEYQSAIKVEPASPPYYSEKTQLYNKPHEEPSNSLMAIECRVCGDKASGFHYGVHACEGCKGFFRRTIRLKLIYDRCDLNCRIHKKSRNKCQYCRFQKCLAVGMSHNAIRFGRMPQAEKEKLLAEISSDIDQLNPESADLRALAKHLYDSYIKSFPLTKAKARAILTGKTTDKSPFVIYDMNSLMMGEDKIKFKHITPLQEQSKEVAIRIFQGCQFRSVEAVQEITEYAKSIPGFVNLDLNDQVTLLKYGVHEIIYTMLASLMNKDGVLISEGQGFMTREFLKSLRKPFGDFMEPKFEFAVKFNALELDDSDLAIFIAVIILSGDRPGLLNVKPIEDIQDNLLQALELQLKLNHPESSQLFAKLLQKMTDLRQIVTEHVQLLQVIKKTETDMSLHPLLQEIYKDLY

Protein sequences, listed by entry. Tags and fused reporters are not part of them.
UniProt P37238: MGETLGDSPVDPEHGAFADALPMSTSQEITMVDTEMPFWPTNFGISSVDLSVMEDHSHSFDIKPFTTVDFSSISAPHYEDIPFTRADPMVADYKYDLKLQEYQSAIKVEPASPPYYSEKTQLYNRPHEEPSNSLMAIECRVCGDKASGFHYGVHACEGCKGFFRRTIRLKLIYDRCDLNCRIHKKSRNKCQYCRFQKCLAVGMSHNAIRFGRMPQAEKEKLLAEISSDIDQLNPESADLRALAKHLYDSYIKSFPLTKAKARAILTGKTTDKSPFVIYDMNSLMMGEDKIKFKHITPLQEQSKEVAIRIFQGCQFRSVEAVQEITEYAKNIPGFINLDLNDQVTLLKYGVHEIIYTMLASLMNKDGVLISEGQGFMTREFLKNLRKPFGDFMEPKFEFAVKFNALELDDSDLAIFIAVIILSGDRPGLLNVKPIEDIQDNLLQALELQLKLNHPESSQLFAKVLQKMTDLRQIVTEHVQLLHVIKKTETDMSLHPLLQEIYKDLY
UniProt Q9WUD1: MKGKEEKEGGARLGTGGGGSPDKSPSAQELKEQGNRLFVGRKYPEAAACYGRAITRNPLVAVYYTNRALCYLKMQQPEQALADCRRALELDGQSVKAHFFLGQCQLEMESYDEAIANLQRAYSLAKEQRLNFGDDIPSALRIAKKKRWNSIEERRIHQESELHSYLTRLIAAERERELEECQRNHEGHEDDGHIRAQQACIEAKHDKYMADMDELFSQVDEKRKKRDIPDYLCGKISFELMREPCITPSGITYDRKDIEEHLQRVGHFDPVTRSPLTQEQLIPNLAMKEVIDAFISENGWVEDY

HA-PPARγ2 (peroxisome …) = target: T2, HA-PPARγ2 (peroxisome proliferator-activated receptor γ, isoform 2), P37231; test: co-IP; lysates of HEK293T cells transfected with FLAG-CHIP and HA-PPARγ, immunoprecipitated with α-HA and FLAG antibodies; in panel b cells treated with 10 μM MG132 for 6 hour before harvest; details: remark: other sources report otherwise
T2 chain: T1 chain

[5] = target: T3, HA-CHIP, from pcDNA3-HA-CHIP, Q9UNE7; test: co-IP; lysates of HEK 293T cells transfected with HA-CHIP variants and FLAG-PPARγ, immunoprecipitated with α-HA antibodies; details: remark: other sources report otherwise
T3 chain: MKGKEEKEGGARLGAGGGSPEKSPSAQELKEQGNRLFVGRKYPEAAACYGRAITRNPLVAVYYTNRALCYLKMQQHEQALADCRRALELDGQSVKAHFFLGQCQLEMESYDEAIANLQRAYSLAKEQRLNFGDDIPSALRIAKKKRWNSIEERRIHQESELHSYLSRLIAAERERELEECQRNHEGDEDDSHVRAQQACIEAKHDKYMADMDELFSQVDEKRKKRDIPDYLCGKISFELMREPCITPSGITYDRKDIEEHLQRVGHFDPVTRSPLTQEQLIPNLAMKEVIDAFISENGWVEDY

[6] = target: T4, MYC-CHIP, from pcDNA3-MYC-CHIP, Q9UNE7; test: co-IP; lysates of HEK 293T cells transfected with deletion mutants of PPARγ2 or CHIP, immunoprecipitated with α-Myc and α-FLAG antibodies; details: remark: other sources report otherwise
T4 chain: T3 chain

[7] = target: T5, FLAG-CHIP (C-terminus of HSC70-interacting protein), from pcDNA3-FLAG-CHIP, Q9UNE7; test: co-IP; lysates of HEK293T cells transfected with FLAG-CHIP and HA-PPARγ, immunoprecipitated with α-HA and FLAG antibodies; in panel b cells treated with 10 μM MG132 for 6 hour before harvest; details: remark: other sources report otherwise
T5 chain: T3 chain

[8] = target: T6, endogenous PPARγ of PC-3 cells (human (endogenous in PC-3)), P37231; test: co-IP; endogenous proteins of PC-3 cells; immunoprecipitated with α-IgG and α-PPARγ, western blot with polyclonal CHIP and monoclonal PPARγ antibodies; details: remark: other sources report otherwise
T6 chain: T1 chain

[9] = target: T7, recombinant GST-CHIP, from pGEX-4T1-CHIP, Q9UNE7; test: pull-down; GST pull-down: in vitro translated PPARγ2 incubated with GST or GST fusion protein for two hours, then with sepharose beads for one hour; washed, eluted with 10 mM reduced glutathione; western blot with GST and PPARγ antibodies; only the target purified; details: remark: other sources report otherwise
T7 chain: T3 chain

endogenous CHIP of differentiated 3T3-L1 cells (from UniProt Q9WUD1 1-304) (enzyme)
binding [1]: binds

FLAG-PPARγ2, from pCS4-3xFLAG-PPARγ2 (from UniProt P37231-1 1-505) (receptor)
binding [2]: no binding | binding [3]: binds

B1: FLAG-CHIP (C-terminus of HSC70-interacting protein), from pcDNA3-FLAG-CHIP, Q9UNE7 1-303 (enzyme)
chain: T3 chain
binding [4]: binds | binding (HA-PPARγ2 (peroxisome …)): binds

B2: FLAG-PPARγ2, from pCS4-3xFLAG-PPARγ2, P37231-1 1-505 (receptor)
chain: T1 chain
binding [5]: binds | binding [6]: binds

B3: HA-PPARγ2 (peroxisome proliferator-activated receptor γ, isoform 2), P37231-1 1-505 (receptor)
chain: T1 chain
binding [7]: binds

B4: endogenous CHIP of PC-3 cells, Q9UNE7 1-303 (enzyme)
chain: T3 chain
binding [8]: binds

B5: PPARγ2 transcribed and translated in reticulocyte lysate, P37231-1 1-505 (receptor)
chain: T1 chain
binding [9]: binds

Source: publication PMC5216347
